Assay results: PubChem BioAssay AID686970 (National Center for Advancing Translational Sciences (NCATS), 2013)
In all, about 360,000 compounds went through this assay and about 6,000 (1.7%) were called active. The inconclusive results got no clear call from the source; some entries with a clear call stand among them for comparison. The call rests on the fitted dose curve; in most records, active means well fitted cell-killing curve with a large enough effect; inconclusive means small, poorly fitted or top-dose-only effect, or effect the other way; inactive means flat fitted curve, though single readings scatter. No potency is given beside an inconclusive call; the fits are too rough.

Assay: qHTS for induction of synthetic lethality in tumor cells producing 2HG: qHTS for the HT-1080-NT fibrosarcoma cell line;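 further: NT is the 2HG producing partner of a matched IDH1 knockdown line; nearly all actives have a fitted effect of over 55% in size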;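 on activity, negative = less viability: 0% = DMSO-treated cells and -100% = media-only wells without cells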
Details: HT-1080-NT fibrosarcoma viability, CellTiter-Glo ATP luminescence, 48 h; activity, negative = less viability: at 46.1 µM (top of the series) unless noted
Method in brief: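 750 cells/well, RPMI + 5% FBS; 2 h settle, compound pin-transfer, 48 h at 37 degrees C. CellTiter-Glo 10 min RT, luminescence. Normalized to DMSO and media-only wells.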
Potency means the concentration at half of the fitted maximal effect; tags describe the fitted curve by direction and shape.

| SMILES | Potency | activity, negative = less viability |
| --- | --- | --- |
| COc1cccc(/C=N/Nc2cc(-n3nc(C)cc3-c3ccccc3)ncn2)c1O | inconclusive [cytotoxic, single point] | – |
| CCc1ccc2oc(-c3cc(N)cc(C)c3O)nc2c1 | inconclusive [cytotoxic, partial curve] | – |
| c1ccc(-c2nc3cc4ccccc4cc3[nH]2)nc1 | inconclusive [cytotoxic, single point] | – |
| CCN1C(=O)C(=Cc2cccc(OC)c2Oc2ccc([N+](=O)[O-])cc2[N+](=O)[O-])SC1=S | active: 2.59 µM | – |
| COc1ccc(CCNc2ncnc3[nH]ncc23)cc1OC | inconclusive [cytotoxic, single point] | – |
| COC(=O)[C@@]1(C(C)C)N=C(c2cc(OC)c(OC)c(OC)c2)[C@]2(O1)C(=O)N(C)c1ccc(Br)cc12 | inconclusive [cytotoxic, single point] | – |
| CCc1nc2ccc(C(=O)NCc3ccco3)cc2nc1CC | – | inactive: 12.8% |
| OC(c1ccc(F)cc1)c1nc(-c2csc3ccccc23)cs1 (stereo not given) | inconclusive [cytotoxic, single point] | – |
| Nc1nc2ccccc2n1CCOc1ccccc1Cl | inconclusive [cytotoxic, partial curve] | – |
| CCN(CC)C(=O)Oc1ccc2ccccc2c1Br | inconclusive [cytotoxic, partial curve, poor fit] | – |
| COc1ccc(Nc2nc(N3CCCC3)nc3ccccc23)c(OC)c1 | inconclusive [cytotoxic, single point] | – |
| COc1ccc(-c2cc(C)no2)cc1S(=O)(=O)N1CCCN(Cc2ccc(F)cc2)C1 | inconclusive [cytotoxic, single point] | – |
| CC(O)(c1ccc(F)c(F)c1)c1nc(-c2cc3ccccc3o2)cs1 (stereo not given) | inconclusive [cytotoxic, single point] | – |
| CSc1ncccc1C(=O)N1CCCC(C(=O)c2ccc3ccccc3c2)C1 (stereo not given) | – | inactive: 10.2% |
| Cc1cc(Sc2nnc(/N=C/N(C)C)s2)c2ccccc2n1 | active: 14.6 µM | – |
| O=C1CN(C(=O)COC(=O)c2cc(S(=O)(=O)N3CCOCC3)ccc2Cl)c2ccccc2N1 | – | inactive: 3.66% |
| COc1ccc(CNC(=O)COC(=O)c2ccc(OCC3CCCO3)cc2)cc1 (stereo not given) | inconclusive [cytotoxic, single point] | – |
| N#Cc1c(-c2ccc3c(c2)OCO3)ccn2nc(-c3cccc(C(F)(F)F)c3)nc12 | inconclusive [cytotoxic, single point] | – |
| CCCCOC(=O)c1[nH]c2c(c1C)C(=O)CC(c1cc(OC)c(OC)c(OC)c1)C2 (stereo not given) | – | inactive: -2.78% |
| Cc1ccc2ccccc2c1C(O)c1ncc(-c2ccccc2Cl)[nH]1 (stereo not given) | inconclusive [cytotoxic, single point] | – |
| O=C(c1cc2ccccc2c(=O)o1)N1CCCCCC1 | inconclusive [rising, single point] | – |
| Cc1n[nH]c(=O)nc1N/N=C/c1cccs1 | inconclusive [cytotoxic, single point] | – |
| O=C(NCc1cccnc1)/C(=C\c1ccc(-c2ccc(Cl)c(Cl)c2)o1)S(=O)(=O)c1ccccc1 | inconclusive [cytotoxic, single point] | – |
| COc1cccc(C2=NOC(C(=O)Nc3cc(C)nn3-c3ccccc3)C2)c1OC (stereo not given) | inconclusive [cytotoxic, single point] | – |

| SMILES | Potency | activity, negative = less viability |
| --- | --- | --- |
| CCS(=O)(=O)N1Cc2ccccc2CC1C(=O)Nc1nc2ccc(C)cc2s1 (stereo not given) | inconclusive [cytotoxic, single point] | – |
| COc1cc2c(-c3ccc(O)cc3)nc3c(c(C)nn3-c3ccccc3)c2cc1OC | – | inactive: -19.4% |
| O=S1(=O)N[C@H](Cc2ccccc2)COc2cccc(N3CCSCC3)c21 | inconclusive [cytotoxic, single point] | – |
| CCN(Cc1cc(=O)oc2cc(C)ccc12)c1ccccc1 | inconclusive [cytotoxic, single point] | – |
| CCOc1ccc(Nc2nc3c(c(=O)[nH]2)CCC3)cc1 | inconclusive [cytotoxic, single point] | – |
| COCC(=O)N1C[C@H](C)[C@H](OC)CN(C)C(=O)c2cc(NC(=O)Nc3cccc(F)c3)ccc2OC[C@@H]1C | – | inactive: -0.434% |
| COc1ccc(O)c(/C=N/NC(=O)c2ccc(N3CCCC3=O)cc2)c1 | inconclusive [cytotoxic, single point] | – |
| COc1ccc(-c2noc(CSc3nnc(Cc4ccccc4)n3-c3ccc(Cl)cc3)n2)cc1 | inconclusive [cytotoxic, single point] | – |
| CC(C)=CCc1c(O)c(CC=C(C)C)c2c(c1O)C(=O)CC(c1ccc(O)cc1)O2 (stereo not given) | inconclusive [cytotoxic, single point] | – |
| Cc1ccc(OCCn2c(C3CC(=O)N(Cc4ccccc4)C3)nc3ccccc32)cc1 (stereo not given) | – | inactive: -22.7% |
| O=C(C1COc2ccccc2O1)N1CCN(S(=O)(=O)c2ccccc2)CC1 (stereo not given) | – | inactive: -2.07% |
| Fc1ccc(NC(=S)Nc2ccc(Cl)cc2)cc1 | inconclusive [cytotoxic, single point] | – |
| COC(=O)c1cccc(Nc2c3c(nc4ccccc24)CCC3)c1 | active: 20.6 µM | – |
| Cc1ccnc(NC(=O)Cn2c(=O)oc3cc(S(=O)(=O)N4CCCC4)ccc32)c1 | – | inactive: 10.3% |
| CCOc1cc(N2CCOCC2)c(OCC)cc1NC(=O)Cc1ccc(OC)c(OC)c1 | – | inactive: -1.2% |
| CCc1cc(C(=O)N/N=C/c2ccc(OC)cc2)c2ccccc2n1 | inconclusive [cytotoxic, partial curve] | – |
| Cc1ccc(-c2nnc(Sc3nc4ccccc4o3)c3ccccc23)cc1 | inconclusive [cytotoxic, partial curve, poor fit] | – |
| COc1cccc(CNCCc2c[nH]c3ccccc23)c1OCc1ccccc1 | active: 20.6 µM | – |
| COC(=O)CSc1nnc(COc2ccc([N+](=O)[O-])cc2)n1C | – | inactive: -1.3% |
| COc1ccc(C(=O)/C=C/Nc2ccc(S(=O)(=O)Nc3onc(C)c3C)cc2)cc1 | – | inactive: -3.82% |
| CCc1nc2c(OCC3CCCCC3)cccn2c1N(C)C(=O)c1ccc(C)cc1 | inconclusive [cytotoxic, single point] | – |
| Cc1cccc(N2CCN(S(=O)(=O)c3ccc4c(c3)CC(C)N4C(=O)C3CC3)CC2)c1C (stereo not given) | inconclusive [cytotoxic, single point] | – |
| CCOc1cc2c3c(c1)C(C)=CC(C)(C)N3C(=O)C2=O | active: 4.61 µM | – |
| Cc1cc(-c2nc3ccccc3[nH]2)ccc1N | inconclusive [cytotoxic, single point] | – |

| SMILES | Potency | activity, negative = less viability |
| --- | --- | --- |
| COc1ccc(C2CC(c3cccs3)=NN2C(=O)CSc2nc(=O)n3ccccc3n2)cc1 (stereo not given) | inconclusive [cytotoxic, partial curve, poor fit] | – |
| O=C(O)C/C(=C\c1cccc(NC(=O)c2ccccc2Cl)c1)c1nc2ccccc2s1 | – | inactive: -9.84% |
| Cc1cc(C(=O)Nc2cnc3ccccc3c2)ccc1[N+](=O)[O-] | – | inactive: 17.3% |
| CCC(c1nnnn1CCc1ccccc1)N(Cc1ccco1)Cc1cc2c(C)ccc(C)c2[nH]c1=O (stereo not given) | – | inactive: -3.22% |
| Cc1ccc(Cl)cc1-c1cc(C(=O)NCc2cccc(Cl)c2)[nH]n1 | inconclusive [cytotoxic, single point] | – |
| COc1cccc(-c2c(-c3ccccc3OC)ncn2Cc2cccc(-c3ccccc3)c2)c1 | inconclusive [cytotoxic, single point] | – |
| Cn1c(C23CC4CC(CC(C4)C2)C3)n[nH]c1=S | – | inactive: 1.72% |
| CCCCCNC(=O)C(CCc1ccccc1)n1c(=O)c(-c2cc3ccccc3[nH]2)nc2ccccc21 (stereo not given) | – | inactive: -21.4% |
| CCCCC1CC2=C(C(=O)OC(C)(C)O2)C(c2cccc3ccccc23)O1 (stereo not given) | inconclusive [cytotoxic, single point] | – |
| COc1ccc(C=NNc2ccc([N+](=O)[O-])cn2)cc1 | – | inconclusive: 30.6% |
| NC(=NCCc1ccccc1)NS(=O)(=O)c1cccs1 | – | inactive: 4.79% |
| COc1cccc(-c2ccc(C#N)c(SCC(=O)NCCc3cccc(Cl)c3)n2)c1 | inconclusive [cytotoxic, partial curve] | – |
| Nc1ccc(Br)c2c1C(=O)c1ccccc1C2=O | inconclusive [cytotoxic, single point] | – |
| COc1cc(OC)c2c(-c3cccc(-c4ccoc4)c3)cc(=O)oc2c1 | inconclusive [cytotoxic, single point] | – |
| COc1ccc(C=O)cc1COc1ccc2c(c1)OCO2 | inconclusive [cytotoxic, single point] | – |
| Oc1ccc2ccccc2c1C=NNc1ccccn1 | inconclusive [cytotoxic, single point] | – |
| COc1ccc2[nH]c(C(=O)N3CCN(Cc4ccccc4)CC3)cc2c1OC | – | inconclusive: -32.4% [cytotoxic] |
| COc1cc(OC)c(C2=NOC(C(=O)NCc3ccc4c(c3)OCO4)C2)cc1Cl (stereo not given) | inconclusive [cytotoxic, single point] | – |
| C=CCn1c(SCc2c(C)noc2C)nc2sc(C)c(C)c2c1=O | active: 15.8 µM | – |
| Cc1cc(C)cc(NC(=O)c2ccc(CN3CCc4ccccc4C3)cc2)c1 | inconclusive [cytotoxic, single point] | – |
| CCOC(=O)N1CCN(CC(O)COc2ccc(OC)cc2C(C)(C)C)CC1 (stereo not given) | – | inactive: 7.63% |
| Cc1cccc(C(=O)N2CCc3cc(-c4nc(NC(=O)CN5CCCC5)sc4C)ccc32)c1 | inconclusive [cytotoxic, single point] | – |
